Values marked as one replicate rest on one cluster of the flow cell; about a third of the high ones do not repeat.
Tested on: ATP
Assay: switch fluorescence ratio, 500 uM ATP over buffer (Cy3 cluster intensity, sum of 5 cycles each) (fold (ratio)); higher = stronger signal-on switching upon ATP binding; sequences stand for … in TCGTCGGCAGCGTCAGATGTGTATAAGAGACAGTTTTTTTTTTTTTTTTTTTTTTTTT…TC
Conditions: aptamer strand: ATP DNA aptamer (quencher-CACCTGGGGGAGTATTGCGGAGGAAGG + anchor), 100 nM annealed; ATP concentration: 500 uM; one replicate
Summary of the method: (§1)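 The fluorescence ratio divides summed target-cycle Cy3 intensity by summed buffer-cycle Cy3 intensity for each cluster and is averaged per switch-domain sequence. Cy3-labelled switching-strand clusters on a modified Illumina MiSeq flow-cell were annealed to 100 nM quencher-labelled ATP aptamer, then imaged in selection buffer and again after 15 min with 500 uM ATP at 22 °C. Five such cycles were run, with NaOH stripping and re-annealing between them, and clusters outside 100-1000 RFU were excluded.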
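Note: ATP exposure 15 min at 22 °C before imaging.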

Sequence | switch fluorescence ratio
TTTGAGGACG | 1.09
TTTGAGGCGG | 0.971
TTTGCCACCC | 0.989
TTTGCCATC | 1.12
TTTGCCTAAG | 1.03
TTTGCGCCTA | 0.996
TTTGCGGAAG | 1.03
TTTGCGGCAA | 1.05
TTTGCGTCAA | 1.07
TTTGCTCTTG | 1.02
TTTGCTCTTT | 0.953
TTTGGAAG | 0.988
TTTGGACGT | 1
TTTGGACTCT | 0.964
TTTGGGCGTA | 1.04
TTTGGTATAA | 0.969
TTTGGTATGC | 0.925
TTTGTAAACT | 0.949
TTTGTACCAG | 1.05
TTTGTATTA | 1.04
TTTGTATTAA | 0.964
TTTGTATTC | 1.08
TTTGTCACGC | 1.03
TTTGTCAGTC | 0.967
TTTGTCCTTG | 0.99

Sequence | switch fluorescence ratio
TTTGTCGCAG | 0.972
TTTGTCGTGG | 1.13
TTTGTCGTGT | 0.945
TTTGTCTTAT | 0.974
TTTGTGGACA | 0.989
TTTGTGTACA | 1.01
TTTGTGTTCG | 1.04
TTTGTTAAAG | 0.987
TTTGTTCAGC | 0.952
TTTGTTCTTA | 0.968
TTTGTTGCG | 0.994
TTTGTTTAGT | 1.01
TTTTAAAACC | 1.03
TTTTAAGTAC | 1.18
TTTTACACG | 0.982
TTTTACTG | 0.904
TTTTAGTGC | 0.954
TTTTCAACTG | 1.12
TTTTCACTGT | 0.941
TTTTCAGGCA | 1.01
TTTTCAGTAT | 1.01
TTTTCATCCC | 1.05
TTTTCCGGTA | 1.01
TTTTCGCGTA | 0.996
TTTTCTAGTC | 1.06

Sequence | switch fluorescence ratio
TTTTGAGAGT | 1.02
TTTTGATA | 1.03
TTTTGATAGC | 0.996
TTTTGATT | 1.04
TTTTGCCCGT | 1.03
TTTTGCGCGG | 0.991
TTTTGCTTTA | 1.02
TTTTGGCAAA | 0.948
TTTTGGGAA | 0.993
TTTTGGTGCA | 0.994
TTTTGTATAG | 1.01
TTTTGTCAT | 1.01
TTTTGTCCAC | 1.04
TTTTGTGATC | 0.954
TTTTGTTGGA | 1
TTTTTAGC | 1.01
TTTTTCAAGC | 0.993
TTTTTCCTTC | 1.12
TTTTTCTAGA | 1
TTTTTCTCAA | 1.04
TTTTTGACAT | 0.955
TTTTTGCGG | 0.958
TTTTTGTC | 1.03
TTTTTTCTCA | 0.985
TTTTTTTA | 0.976

Tested on: ATP
Assay: switch fluorescence ratio, 500 uM ATP over buffer (Cy3 cluster intensity, sum of 5 cycles each) (fold (ratio)); higher = stronger signal-on switching upon ATP binding
Conditions: aptamer strand: ATP DNA aptamer (quencher-CACCTGGGGGAGTATTGCGGAGGAAGG + anchor), 100 nM annealed; ATP concentration: 500 uM; one replicate
Summary of the method: as §1

Sequence | switch fluorescence ratio
TCGTCGGCAGCGTCAGATGTGTATAAGAGACAGTTTTTTTTTTTTTTTTTTTTTTTTTTGGTC | 0.972

From the supplement of paper PMC10126150
